The text below walks through data of PubChem BioAssay AID1508624 (National Center for Advancing Translational Sciences (NCATS), 2021).

In all, about 48,000 compounds went through this assay and about 120 (0.25%) were called active. About 4% were inconclusive and are not listed. Calls follow the shape of the dose curve; as a rule, active = well fitted activation curve with a large enough effect; inconclusive = small, poorly fitted or top-dose-only effect, or another doubt; inactive = no such curve, though single readings can be large or run the other way. The list shows a part of the results.

A short description of this test: Primary qHTS for Identification of Small Molecule Activators of Huntingtin-Antisense Promoter Activity. Also: nearly all actives have a fitted effect of over 55% in size. The conditions noted are these: HEK293 HTT-AS promoter firefly luciferase reporter, 24 h; series mostly up to 57.5 µM; activity change, positive = activation: at the top concentration. The procedure, abridged:
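Firefly luciferase readout (Dual-Glo, 10 min RT) after 24 h, 37 °C compound exposure (final up to 57.5 uM) of HEK293 reporter cells cultured 24 h beforehand; PTC124 at 50 uM final as control inhibitor; activity scaled vehicle 0%, zero RLU -100%.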
On the technique in general: Quantitative high-throughput screening tests each substance at several concentrations.
As for `O=C1CC(c2ccccc2)Sc2nc(-c3ccc(F)cc3)nn21` (centres undefined), the “activity change, positive = activation” value is inactive: 8%.

With `O=C(c1[nH]c2ccccc2c1Sc1ccc(Cl)cc1)N1CCCCC1`, the “activity change, positive = activation” value is inactive: -10%. To `CCC1CN(C(=O)N2CCC(C(=O)NCCc3ccccc3C)CC2)c2ccccc2O1` (centres undefined) belongs inactive: -38.1%; to `CCOc1ccccc1CNCc1c(C(=O)O)c(C)n(Cc2ccc(Cl)cc2)c1C`, inactive: -11%. To `CCN(Cc1ccccc1)Cc1c(O)ccc2c(=O)c(-c3ccccc3)c(C(F)(F)F)oc12` belongs inactive: -27.9%; to `CCN(CC)CCNC(=O)c1ccc2c(c1)NC(=O)C(CS(=O)(=O)Cc1cccc(Br)c1)N2` (centres undefined), inactive: -5.88%. For the compound `COc1ccc(-c2nc3cc(C(C)C)ccc3o2)cc1NC(=O)COc1ccc(C)cc1C`, the “activity change, positive = activation” value is inactive: 7.37%. To `O=C(Cn1c(=O)c2ccccc2n(CC(=O)Nc2ccc(F)cc2F)c1=O)NCCc1ccccc1` belongs inactive: -15.9%.

For the compound `Cc1ccc(C)c(Nc2ncnc3onc(C)c23)c1`, the “activity change, positive = activation” value is inactive: -17.9%. To `COc1ccc(NC(=O)CCSc2nc(-c3ccco3)cc(C(F)(F)F)n2)cc1` belongs inactive: -7.47%; to `COc1ccc(NC(=O)CSc2ncccc2C(=O)O)cc1OC`, inactive: 1.23%.

On to `CCN(C(=O)c1cc2c(=O)oc3ccc(C)cc3c2s1)c1cc(OC)ccc1OC`, for which the “activity change, positive = activation” value is inactive: -23.4%. The value for `COc1ccccc1N1CCN(S(=O)(=O)c2c(C)sc3ncn(CC(=O)Nc4ccc(C(F)(F)F)cc4)c(=O)c23)CC1` was inactive: 16.3%. To `CC(=O)c1ccc(NC(=O)C2CCCN(S(=O)(=O)c3ccc4c(c3)CCCN4C(C)=O)C2)cc1` (centres undefined) belongs inactive: -21.3%. To `Cc1cc(C)c(NC(=O)CCCN2C(=O)COc3ccc(C)cc32)c(C)c1` belongs inactive: -10.1%; to `Cc1ccc(OCC(=O)Nc2ccccc2C(=O)OCc2cc(=O)n3ccsc3n2)cc1C`, inactive: 0%; to `COc1ccc(CCNC(=O)CN(c2cc(C(F)(F)F)ccc2Cl)S(C)(=O)=O)cc1`, inactive: -15.8%. `O=C(Cn1ccc2cc(S(=O)(=O)N3CCCCC3)ccc21)NCCc1ccc(Cl)cc1`: the “activity change, positive = activation” value is inactive: -41.9%. As to `COC(=O)c1sc(NC(=O)c2cc3nc(-c4ccc(Br)cc4)cc(C(F)(F)F)n3n2)c(C(=O)OC)c1C`, the “activity change, positive = activation” value was inactive: -1.78%. The value for `CCc1ccc(NC(=O)c2cc3nc(-c4ccc(C)cc4)cc(C(F)(F)F)n3n2)cc1` was inactive: -6.16%; that for `CCOC(=O)c1c(NC(=O)Cc2coc3cc(C)ccc23)sc2c1CCCC2` was inactive: -2.42%; that for `CCC1CN(C(=O)N2CCC(C(=O)Nc3cc(C)ccc3C)CC2)c2ccccc2O1` (centres undefined) was inactive: -17.1%. For `CCCCOc1ccc(C(=O)CCN2CCCCC2)cc1`, the “activity change, positive = activation” value is inactive: -2.59%. To `COc1cc(C2c3c(oc4ccccc4c3=O)C(=O)N2c2nncs2)cc(OC)c1OC` (centres undefined) belongs inactive: -17.8%; to `Cc1cccc(-c2cc(NC(=O)C(C)(C)C)n(-c3ccccc3)n2)c1`, inactive: 19.6%; to `O=C(COc1ccc(F)cc1)Nc1ccccc1C(=O)OCc1cc(=O)n2nc(C3CC3)sc2n1`, inactive: -23.9%. To `Cc1nc2nc(SCc3ccc(F)cc3Cl)nn2c(C)c1Cc1ccccc1` belongs inactive: -0.411%; to `CCOc1ccc(-c2cn3c(n2)sc2cc(C(=O)NCCCc4ccccc4)ccc23)cc1`, inactive: -7.36%. To `O=C(CS(=O)(=O)c1cccc2nsnc12)NCc1ccc(Cl)cc1` belongs inactive: -3.74%; to `COc1ccc(-c2c(C)nn3c4c(cnc23)C(=O)CC(c2ccccc2)C4)cc1` (centres undefined), inactive: -0.866%; to `CC(NC(=O)c1ccc(Nc2nc3ccccc3n3nnnc23)cc1)c1ccccc1` (centres undefined), inactive: 12.4%.

Turning to `Cc1nc2nc(-c3ccc(Cl)cc3Cl)nn2c(C)c1CCC(=O)Nc1ccc(F)cc1`, the “activity change, positive = activation” value is inactive: -80.3%.

As for `COc1cccc(N2CC(NC(=O)c3ccc4c(c3)OCO4)CC2=O)c1` (centres undefined), the “activity change, positive = activation” value is inactive: -11.7%.

On to `CCCCN(C)CCCNC(=O)CN1C(=O)COc2ccc(S(=O)(=O)N3CCOCC3)cc21`, for which the “activity change, positive = activation” value was inactive: -5.76%. To `CC1CCN(S(=O)(=O)c2cc3c4c(c2)CC(=O)N4CCC3)CC1` belongs inactive: -18.6%; to `Fc1ccc(-c2cc(-c3ccccc3)c3c(n2)-c2cc(F)ccc2OC3)cc1`, inactive: -6.35%; to `Cc1ccc(-c2c(C)n3c4c(=O)n(C)c(=O)n(C)c4nc3n2-c2cccc(O)c2)cc1`, inactive: -16.2%. The value for `COc1ccc(S(=O)(=O)NCC(c2ccco2)N2CCOCC2)cc1` (centres undefined) was inactive: -16.4%. The value for `Cc1cc(C)cc(NC(=O)CSc2oc(-c3cccs3)nc2S(=O)(=O)c2ccccc2)c1` was inactive: -28%. Regarding `CCOC(=O)c1cc(S(=O)(=O)N2CCN(c3cc(C)ccc3C)CC2)[nH]n1`, the “activity change, positive = activation” value is inactive: -10.8%. The value for `COc1ccccc1Nc1nn2c(=O)c3ccc(C(=O)N4CCCCC4)cc3nc2s1` was inactive: -24.3%; that for `COc1ccc(CCC(=O)Nc2nc3ccc(Cl)cc3s2)cc1OC` was inactive: 14.9%. The value for `Cc1cccc(C)c1N1CC(c2nc3ccccc3n2CC(=O)OC(C)C)CC1=O` (centres undefined) was inactive: -25.2%; that for `COc1ccc(NC(=O)CSc2nc3cc(OC)c(OC)cc3c3nc(-c4ccccc4)nn23)cc1Cl` was inactive: 0.939%. The value for `COc1ccc(-c2cc3nccn3c(Nc3ncccc3C(N)=O)n2)cc1OC` was inactive: -5.09%. Regarding `COc1cc(-c2ccno2)ccc1S(=O)(=O)N1CCN(c2ccccc2F)CC1`, the “activity change, positive = activation” value is inactive: -27.4%. To `COC(=O)c1ccc(NC(=O)C(=O)NCCc2sc(-c3cccc(F)c3)nc2C)cc1` belongs inactive: -4.61%; to `COc1ccc(CC(=O)NCc2nc3cccnc3n2Cc2ccc(C)cc2)cc1`, inactive: -12.1%. To `CCCN(CCC)C(=O)CSc1nc2ccccc2c(=O)n1Cc1ccco1` belongs inactive: -23.8%; to `CCc1ccc(NC(=O)Cn2c(=O)n(CCC(=O)NCc3ccc4c(c3)OCO4)c(=O)c3ccccc32)cc1`, inactive: -16.6%; to `CCC1CN(C(=O)Nc2cc(C)cc(C)c2)c2ccccc2O1` (centres undefined), inactive: -27.4%. As for `Cc1cc(NC(=O)c2cc(-c3ccc(Cl)cc3)on2)nn1Cc1ccc(Cl)cc1`, the “activity change, positive = activation” value is inactive: -33.3%.

Consider `Cc1c(C)n(Cc2ccccc2)c2ccc(C(=O)NCc3ccco3)cc12`, for which the “activity change, positive = activation” value was inactive: -15%.

For the compound `Cc1cccc(CN2CCc3nc(N4CCN(c5ccccn5)CC4)ncc3C2)c1`, the “activity change, positive = activation” value was inactive: -45.3%. The value for `COc1cccc(Cn2c(=O)n(-c3ccccc3C)c(=O)c3c2c2cc(C)ccc2n3C)c1` was inactive: -42.5%; that for `COc1cccc(NC(=O)C2CCN(C(=O)N3CC(C)Oc4ccccc43)CC2)c1` (centres undefined) was inactive: -25.6%; that for `Cc1ccc(CNC(=O)CN2C(=O)C3CCCCN3c3ccc(C(=O)N4CCCC4)cc32)cc1` (centres undefined) was inactive: -11.6%. To `COc1ccc(Cl)cc1C(=O)Nc1ccc(-c2nnc3n2CCCCC3)cc1` belongs inactive: -12.9%. For the compound `O=C(NCc1ccccc1Cl)c1ccc2c(O)c(S(=O)(=O)c3ccccc3)c(=O)[nH]c2c1`, the “activity change, positive = activation” value is inactive: -13.7%. To `CC(=O)c1ccc(NC(=O)CCc2c(C)nc3cc(-c4ccc(Cl)cc4)nn3c2C)cc1` belongs inactive: -80%; to `COc1cccc(-n2c(SCc3ccccc3C)nc3c([nH]c4ccccc43)c2=O)c1`, inactive: -23.5%.

Consider `Cc1ccc(C)c(NC(=O)CN(CCc2ccccc2)S(=O)(=O)c2ccccc2)c1`, for which the “activity change, positive = activation” value is inactive: -25.5%. To `Cc1cccc(Cc2c(C)nc3nc(SCc4ccccc4C)nn3c2C)c1` belongs inactive: 1.49%; to `CN(C)S(=O)(=O)c1ccc2c(c1)nnn2CCNC(=O)Nc1ccc(Br)cc1`, inactive: -11.9%; to `Cn1c(=O)c2c(nc(NCc3ccccc3)n2Cc2ccccc2Cl)n(C)c1=O`, inactive: 3.64% [at 11.5 µM, percent change from vehicle, -100% = no light].

With `CCCCOc1ccc(CNC(=O)c2cnc3sc(N4CCOCC4)nn3c2=O)cc1`, the “activity change, positive = activation” value was inactive: 1.84%. `COc1cccc(OCc2nc3ccccc3n2CCOc2ccccc2C)c1`: the “activity change, positive = activation” value is inactive: -11%. The value for `Cn1nnc2c(C(N)=O)ncn2c1=O` was “inactive”.

`CCOC(=O)C(C)Oc1cccc2c(=O)n(CC(=O)Nc3ccc4c(c3)OCCO4)ccc12` (centres undefined): the “activity change, positive = activation” value is inactive: 7.18%. The value for `O=C(CCn1ccc2cc(S(=O)(=O)N3CCCC3)ccc21)NCc1cccc(Br)c1` was inactive: -3.21%.

Consider `Cc1ccc(C)c(Nc2nn3c(=O)c4ccc(C(=O)NC5CCCCC5)cc4nc3s2)c1`, for which the “activity change, positive = activation” value is inactive: -14.9%. To `COc1ccc(CCNC(=O)CCCCn2c(=O)c3ccccc3n(Cc3ccc(F)cc3Cl)c2=O)cc1OC` belongs inactive: -13.1%.

Turning to `O=[N+]([O-])c1cn2c(n1)OC[C@@H](OCc1ccc(OC(F)(F)F)cc1)C2`, the “activity change, positive = activation” value was inactive: -13.2%. The value for `Cc1ccc(C(=O)NCC(c2cccnc2)N2CCc3ccccc32)cc1C` (centres undefined) was inactive: -33.1%; that for `CC(=O)Nc1ccc(C2Nc3c(C)cc(C)cc3-c3cc(C)nn32)cc1` (centres undefined) was inactive: -7.83%; that for `COc1cc(OC)c(NS(=O)(=O)c2ccc3c(c2)NC(=O)CCS3)cc1Cl` was inactive: -49.2%.

For the compound `Cc1ccc(S(=O)(=O)NCCSc2nnnn2-c2ccc(Cl)c(C(=O)O)c2)cc1`, the “activity change, positive = activation” value was inactive: -10.2%. Take `CCOC(=O)c1ccc(NC(=O)C(Cc2ccccc2)NS(=O)(=O)c2ccc(Br)s2)cc1` (centres undefined): the “activity change, positive = activation” value is inactive: -0.286%. Turning to `CCOC(=O)c1c(C)oc2nc(C)nc(NCc3ccccc3OCC)c12`, the “activity change, positive = activation” value was inactive: -16.4%. Turning to `Cc1cc(C)cc(Nc2sc(C(=O)c3ccccc3)c(N)c2S(=O)(=O)c2ccccc2)c1`, the “activity change, positive = activation” value is inactive: -4.26%. The value for `CC(C)(C)CC(C)(C)c1ccc(OCCOCC[N+](C)(C)Cc2ccccc2)cc1` was inactive: -41.5%. The value for `O=C(NCc1ccccc1Cl)C1CCCN(c2ncnc3onc(-c4ccc(F)cc4)c23)C1` (centres undefined) was inactive: -19%. To `CCc1nn(CC(=O)NC(C)c2ccccc2)c(=O)c2cc3sccc3n12` (centres undefined) belongs inactive: -4.04%; to `CCOC(=O)C1=C(CS(=O)(=O)c2ccc(F)cc2)NC(=O)NC1c1ccc(OCC)c(OC)c1` (centres undefined), inactive: -9.85%; to `CC(C)CCNC(=O)[C@@H](c1ccccc1)N1Cc2ccccc2C1=O`, inactive: -28.5%. With `CCOc1ccc(NC(=O)Cn2nnc(C(=O)Nc3ccc(OCC)cc3)c2N)cc1`, the “activity change, positive = activation” value was inactive: 25.9%. The value for `Cc1ccc(C)c(N2CCN(c3cc(C)nc4c(-c5ccc(Cl)cc5)c(C)nn34)CC2)c1` was inactive: -7.98%; that for `Cc1cc(C)cc(OCC(=O)NCC2(N(C)C)CCCCC2)c1` was inactive: -5.13%.

Regarding `CCCc1cc(=O)n2[nH]c(NCc3ccccc3OC)nc2n1`, the “activity change, positive = activation” value is inactive: 5.69%.

Turning to `Cc1ccc(S(=O)(=O)N2CCC(c3ccncc3)CC2)c(C)c1`, the “activity change, positive = activation” value was inactive: -84.1%.

On to `O=C(COc1ccccc1-c1nc(-c2ccccc2)no1)Nc1ccccc1[N+](=O)[O-]`, for which the “activity change, positive = activation” value is inactive: -9.93%.

For `O=C(CCS(=O)(=O)c1cc(Br)cc2c1N(C(=O)C1CC1)CC2)Nc1ccc(C(F)(F)F)cc1`, the “activity change, positive = activation” value was inactive: -9.52%. `COc1cccc(CNC(=O)CN2C(=O)COc3ccc(S(=O)(=O)Nc4ccccc4)cc32)c1`: the “activity change, positive = activation” value was inactive: -31.3%.

Consider `CN(Cc1ccccc1)C(=O)C1CCN(S(=O)(=O)c2ccc3nc4c(c(C(=O)O)c3c2)CCCC4)CC1`, for which the “activity change, positive = activation” value was inactive: -4.51%.
